# Measured values as given in the supplement of paper PMC8728848.
# The list shows a part of the results.
# B1: SAOUHSC 00176 (Staphylococcus aureus) (protein)
# chain: MSKILKCITLAVVMLLIVTACGPNRSKEDIDKALNKDNSKDKPNQLTMWVDGDKQMAFYKKITDQYTKKTGIKVKLVNIGQNDQLENISLDAPAGKGPDIFFLAHDNTGSAYLQGLAAEIKLSKDELKGFNKQALKAMNYDNKQLALPAIVETTALFYNKKLVKNAPQTLEEVEANAAKLTDSKKKQYGMLFDAKNFYFNYPFLFGNDDYIFKKNGSEYDIHQLGLNSKHVVKNAERLQKWYDKGYLPKAATHDVMIGLFKEGKVGQFVTGPWNINEYQETFGKDLGVTTLPTDGGKPMKPFLGVRGWYLSEYSKHKYWAKDLMLYITSKDTLQKYTDEMSEITGRVDVKSSNPNLKVFEKQARHAEPMPNIPEMRQVWEPMGNASIFISNGKNPKQALDEATNDITQNIKILHPSQNDKKGD
# How the values were obtained:
# Test in all cases: glycan array binding signal (z-score within array); higher = stronger binding
# Settings in all cases: glycan notation: IUPAC condensed, linker removed
# Neu5Ac(a2-3)GalNAc = target: Neu5Ac(a2-3)GalNAc
# Summary of the method: (§1)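 Glycan array binding is given as a within-array Z-score, which can be read as non-binding when negative. The arrays, 3228 of them, came from the Consortium for Functional Glycomics database and were retained only where the protein sequence was available. Z-scores were averaged across arrays of the same protein sequence at different concentrations or buffers and across linkers.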
# [1] = target: Neu5Ac(a2-3)GalNAc(b1-4)GlcNAc
# Summary of the method: as §1
# [2] = target: Neu5Ac(a2-3)[GalNAc(b1-4)]Gal(b1-4)Glc
# Summary of the method: as §1
# [3] = target: Neu5Ac(a2-3)[GalNAc(b1-4)]Gal(b1-4)GlcNAc
# Summary of the method: as §1
# [4] = target: Neu5Ac(a2-3)[GalNAc(b1-4)]Gal(b1-4)GlcNAc(b1-3)GalNAc
# Summary of the method: as §1
# [5] = target: Neu5Ac(a2-3)[Neu5Ac(a2-6)]GalNAc
# Summary of the method: as §1
# Neu5Ac(a2-6)Gal = target: Neu5Ac(a2-6)Gal
# Summary of the method: as §1
# [6] = target: Neu5Ac(a2-6)Gal(b1-3)GlcNAc(b1-3)[Gal(b1-4)GlcNAc(b1-6)]Gal(b1-4)Glc
# Summary of the method: as §1
# Neu5Ac(a2-6)Gal(b1-4)Glc = target: Neu5Ac(a2-6)Gal(b1-4)Glc
# Summary of the method: as §1
# [7] = target: Neu5Ac(a2-6)Gal(b1-4)GlcNAc
# Summary of the method: as §1
# [8] = target: Neu5Ac(a2-6)Gal(b1-4)GlcNAc(b1-2)Man
# Summary of the method: as §1
# [9] = target: Neu5Ac(a2-6)Gal(b1-4)GlcNAc(b1-2)Man(a1-3)Man(b1-4)GlcNAc(b1-4)GlcNAc
# Summary of the method: as §1
# [10] = target: Neu5Ac(a2-6)Gal(b1-4)GlcNAc(b1-2)Man(a1-3)[Gal(b1-4)GlcNAc(b1-2)Man(a1-6)]Man(b1-4)GlcNAc(b1-4)GlcNAc
# Summary of the method: as §1
# [11] = target: Neu5Ac(a2-6)Gal(b1-4)GlcNAc(b1-2)Man(a1-3)[GlcNAc(b1-2)Man(a1-6)]Man(b1-4)GlcNAc(b1-4)GlcNAc
# Summary of the method: as §1
# [12] = target: Neu5Ac(a2-6)Gal(b1-4)GlcNAc(b1-2)Man(a1-3)[GlcNAc(b1-4)][Neu5Ac(a2-6)Gal(b1-4)GlcNAc(b1-2)Man(a1-6)]Man(b1-4)GlcNAc(b1-4)GlcNAc
# Summary of the method: as §1
# [13] = target: Neu5Ac(a2-6)Gal(b1-4)GlcNAc(b1-2)Man(a1-3)[Man(a1-6)]Man(b1-4)GlcNAc(b1-4)GlcNAc
# Summary of the method: as §1
# [14] = target: Neu5Ac(a2-6)Gal(b1-4)GlcNAc(b1-2)Man(a1-3)[Neu5Ac(a2-3)Gal(b1-4)GlcNAc(b1-2)Man(a1-6)]Man(b1-4)GlcNAc(b1-4)GlcNAc
# Summary of the method: as §1
# [15] = target: Neu5Ac(a2-6)Gal(b1-4)GlcNAc(b1-2)Man(a1-3)[Neu5Ac(a2-6)Gal(b1-4)GlcNAc(b1-2)Man(a1-6)]Man(b1-4)GlcNAc(b1-4)GlcNAc
# Summary of the method: as §1
# [16] = target: Neu5Ac(a2-6)Gal(b1-4)GlcNAc(b1-2)Man(a1-3)[Neu5Ac(a2-6)Gal(b1-4)GlcNAc(b1-2)Man(a1-6)]Man(b1-4)GlcNAc(b1-4)[Fuc(a1-6)]GlcNAc
# Summary of the method: as §1
# [17] = target: Neu5Ac(a2-6)Gal(b1-4)GlcNAc(b1-2)Man(a1-6)Man(b1-4)GlcNAc(b1-4)GlcNAc
# Summary of the method: as §1
# [18] = target: Neu5Ac(a2-6)Gal(b1-4)GlcNAc(b1-2)Man(a1-6)[Gal(b1-4)GlcNAc(b1-2)Man(a1-3)]Man(b1-4)GlcNAc(b1-4)GlcNAc
# Summary of the method: as §1
# [19] = target: Neu5Ac(a2-6)Gal(b1-4)GlcNAc(b1-2)Man(a1-6)[GlcNAc(b1-2)Man(a1-3)]Man(b1-4)GlcNAc(b1-4)GlcNAc
# Summary of the method: as §1
# [20] = target: Neu5Ac(a2-6)Gal(b1-4)GlcNAc(b1-2)Man(a1-6)[Man(a1-3)]Man(b1-4)GlcNAc(b1-4)GlcNAc
# Summary of the method: as §1
# [21] = target: Neu5Ac(a2-6)Gal(b1-4)GlcNAc(b1-2)[Neu5Ac(a2-6)Gal(b1-4)GlcNAc(b1-4)]Man(a1-3)[GlcNAc(b1-4)][Neu5Ac(a2-6)Gal(b1-4)GlcNAc(b1-2)[Neu5Ac(a2-6)Gal(b1-4)GlcNAc(b1-6)]Man(a1-6)]Man(b1-4)GlcNAc(b1-4)GlcNAc
# Summary of the method: as §1
# [22] = target: Neu5Ac(a2-6)Gal(b1-4)GlcNAc(b1-2)[Neu5Ac(a2-6)Gal(b1-4)GlcNAc(b1-4)]Man(a1-3)[GlcNAc(b1-4)][Neu5Ac(a2-6)Gal(b1-4)GlcNAc(b1-4)Man(a1-6)]Man(b1-4)GlcNAc(b1-4)GlcNAc
# Summary of the method: as §1
# [23] = target: Neu5Ac(a2-6)Gal(b1-4)GlcNAc(b1-2)[Neu5Ac(a2-6)Gal(b1-4)GlcNAc(b1-6)]Man(a1-6)[Neu5Ac(a2-6)Gal(b1-4)GlcNAc(b1-2)Man(a1-3)][GlcNAc(b1-4)]Man(b1-4)GlcNAc(b1-4)GlcNAc
# Summary of the method: as §1
# [24] = target: Neu5Ac(a2-6)Gal(b1-4)GlcNAc(b1-3)Gal(b1-3)GlcNAc
# Summary of the method: as §1
# [25] = target: Neu5Ac(a2-6)Gal(b1-4)GlcNAc(b1-3)Gal(b1-4)GlcNAc
# Summary of the method: as §1
# [26] = target: Neu5Ac(a2-6)Gal(b1-4)GlcNAc(b1-3)Gal(b1-4)GlcNAc(b1-2)Man(a1-3)[Neu5Ac(a2-6)Gal(b1-4)GlcNAc(b1-3)Gal(b1-4)GlcNAc(b1-2)Man(a1-6)]GalNAc
# Summary of the method: as §1
# [27] = target: Neu5Ac(a2-6)Gal(b1-4)GlcNAc(b1-3)Gal(b1-4)GlcNAc(b1-3)Gal(b1-4)GlcNAc
# Summary of the method: as §1
# [28] = target: Neu5Ac(a2-6)Gal(b1-4)GlcNAc(b1-3)Gal(b1-4)GlcNAc(b1-3)Gal(b1-4)GlcNAc(b1-2)Man(a1-3)[Neu5Ac(a2-6)Gal(b1-4)GlcNAc(b1-3)Gal(b1-4)GlcNAc(b1-3)Gal(b1-4)GlcNAc(b1-2)Man(a1-6)]GalNAc
# Summary of the method: as §1
# [29] = target: Neu5Ac(a2-6)Gal(b1-4)GlcNAc(b1-3)Gal(b1-4)GlcNAc(b1-3)GalNAc
# Summary of the method: as §1
# [30] = target: Neu5Ac(a2-6)Gal(b1-4)GlcNAc(b1-3)Gal(b1-4)GlcNAc(b1-3)[Neu5Ac(a2-6)Gal(b1-4)GlcNAc(b1-3)Gal(b1-4)GlcNAc(b1-6)]GalNAc
# Summary of the method: as §1
# [31] = target: Neu5Ac(a2-6)Gal(b1-4)GlcNAc(b1-3)Gal(b1-4)GlcNAc(b1-6)[Gal(b1-3)]GalNAc
# Summary of the method: as §1
# [32] = target: Neu5Ac(a2-6)Gal(b1-4)GlcNAc(b1-3)Gal(b1-4)[Fuc(a1-3)]GlcNAc(b1-3)Gal(b1-4)[Fuc(a1-3)]GlcNAc
# Summary of the method: as §1
# [33] = target: Neu5Ac(a2-6)Gal(b1-4)GlcNAc(b1-3)GalNAc
# Summary of the method: as §1
# [34] = target: Neu5Ac(a2-6)Gal(b1-4)GlcNAc(b1-3)[Neu5Ac(a2-6)Gal(b1-4)GlcNAc(b1-6)]GalNAc
# Summary of the method: as §1
# [35] = target: Neu5Ac(a2-6)Gal(b1-4)GlcNAc(b1-6)GalNAc
# Summary of the method: as §1
# [36] = target: Neu5Ac(a2-6)Gal(b1-4)GlcNAc(b1-6)[Gal(b1-3)GlcNAc(b1-3)]Gal(b1-4)Glc
# Summary of the method: as §1
# [37] = target: Neu5Ac(a2-6)Gal(b1-4)GlcNAc(b1-6)[Gal(b1-3)]GalNAc
# Summary of the method: as §1
# [38] = target: Neu5Ac(a2-6)Gal(b1-4)GlcNAc6S
# Summary of the method: as §1
# Neu5Ac(a2-6)GalNAc = target: Neu5Ac(a2-6)GalNAc
# Summary of the method: as §1
# [39] = target: Neu5Ac(a2-6)GalNAc(b1-4)GlcNAc
# Summary of the method: as §1
# [40] = target: Neu5Ac(a2-6)GalNAc(b1-4)GlcNAc6S
# Summary of the method: as §1
# [41] = target: Neu5Ac(a2-6)GlcNAc(b1-4)GlcNAc
# Summary of the method: as §1
binder,measurement,setting,value
B1,glycan array binding signal (z-score),Neu5Ac(a2-3)GalNAc,-0.11
same,glycan array binding signal (z-score),[1],-0.141
same,glycan array binding signal (z-score),[2],-0.066
same,glycan array binding signal (z-score),[3],-0.077
same,glycan array binding signal (z-score),[4],-0.117
same,glycan array binding signal (z-score),[5],-0.053
same,glycan array binding signal (z-score),Neu5Ac(a2-6)Gal,-0.073
same,glycan array binding signal (z-score),[6],0.058
same,glycan array binding signal (z-score),Neu5Ac(a2-6)Gal(b1-4)Glc,-0.077
same,glycan array binding signal (z-score),[7],-0.148
same,glycan array binding signal (z-score),[8],-0.082
same,glycan array binding signal (z-score),[9],0.068
same,glycan array binding signal (z-score),[10],0.124
same,glycan array binding signal (z-score),[11],0.051
same,glycan array binding signal (z-score),[12],-0.052
same,glycan array binding signal (z-score),[13],-0.021
same,glycan array binding signal (z-score),[14],-0.114
same,glycan array binding signal (z-score),[15],-0.065
same,glycan array binding signal (z-score),[16],-0.03
same,glycan array binding signal (z-score),[17],-0.045
same,glycan array binding signal (z-score),[18],-0.034
same,glycan array binding signal (z-score),[19],-0.092
same,glycan array binding signal (z-score),[20],-0.059
same,glycan array binding signal (z-score),[21],-0.179
same,glycan array binding signal (z-score),[22],-0.078
same,glycan array binding signal (z-score),[23],-0.119
same,glycan array binding signal (z-score),[24],-0.079
same,glycan array binding signal (z-score),[25],-0.079
same,glycan array binding signal (z-score),[26],-0.06
same,glycan array binding signal (z-score),[27],-0.044
same,glycan array binding signal (z-score),[28],0.358
same,glycan array binding signal (z-score),[29],-0.095
same,glycan array binding signal (z-score),[30],-0.02
same,glycan array binding signal (z-score),[31],-0.046
same,glycan array binding signal (z-score),[32],-0.184
same,glycan array binding signal (z-score),[33],-0.138
same,glycan array binding signal (z-score),[34],-0.056
same,glycan array binding signal (z-score),[35],0.156
same,glycan array binding signal (z-score),[36],-0.057
same,glycan array binding signal (z-score),[37],0.091
same,glycan array binding signal (z-score),[38],-0.106
same,glycan array binding signal (z-score),Neu5Ac(a2-6)GalNAc,-0.005
same,glycan array binding signal (z-score),[39],-0.156
same,glycan array binding signal (z-score),[40],-0.15
same,glycan array binding signal (z-score),[41],-0.087
